{
  "source": "PubChem BioAssay AID1347073",
  "about": "(National Center for Advancing Translational Sciences (NCATS), 2019)",
  "note": "Screen size: about 45,000 compounds; about 200 (0.44%) were called active. Another 7% or so got no clear call; they are omitted. Calls come from the whole dose curve; as a rule, active = well fitted activation curve with a large enough effect; inconclusive = small, poorly fitted or top-dose-only effect; inactive = no such curve, though single readings can be large or run the other way. This is one part of the list.",
  "data": [
    {"assay": "qHTS of TDP-43 Inhibitors: NCGC Sytravon Library Screen; note: 0% is about no effect; nearly all actives have a fitted effect of over 55% in size", "details": "yeast TDP-43 toxicity rescue, BacTiter-Glo growth, 24 h; series mostly up to 46.1 µM; growth rescue (activation): at the top concentration", "method_in_brief": "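TDP-43-expressing yeast, pregrown in raffinose, seeded at OD600 0.02 in galactose medium with compound for 24 hr at 30 deg C. Growth read by BacTiter-Glo luminescence, so rescue of toxicity appears as activation.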", "values": [
      {"smiles": "Cc1ccc(CN2CCN(Cc3ccc(OC(C)C)cc3)CC2CCO)o1", "note": "(stereo not given)", "growth rescue (activation)": "inactive: -3.6%"},
      {"smiles": "COC(=O)c1ccccc1NC(=O)CSc1nccc(C)n1", "growth rescue (activation)": "inactive: 0.459%"},
      {"smiles": "CC(=O)Nc1ccc(NC(=O)CN2C(=O)NC3(CCCCCCC3)C2=O)cc1", "growth rescue (activation)": "inactive: 8.6%"},
      {"smiles": "O=C(NCc1ccccn1)c1ccccc1-c1ccccc1", "growth rescue (activation)": "inactive: -4.14%"},
      {"smiles": "CC(=O)N1N=C(c2cccs2)CC1c1cccs1", "note": "(stereo not given)", "growth rescue (activation)": "inactive: 20.6%"},
      {"smiles": "CC1(C(=O)NCc2ccccc2Br)CCN1Cc1ccccc1OC(F)F", "note": "(stereo not given)", "growth rescue (activation)": "inactive: -1.08%"},
      {"smiles": "CCCS(=O)(=O)NC(=O)C1(C)CCCN(C(=O)c2ccco2)C1", "note": "(stereo not given)", "growth rescue (activation)": "inactive: -0.888%"},
      {"smiles": "O=C(O)CCCN=Cc1c(O)c2ccccc2oc1=O", "growth rescue (activation)": "inactive: -11.7%"},
      {"smiles": "CCOC(=O)CC(=O)Nc1ccc(C)cc1", "growth rescue (activation)": "inactive: 18.2%"},
      {"smiles": "N#C/C(=C/c1ccc(O)c(O)c1)C(=O)NCc1ccc(Cl)cc1", "growth rescue (activation)": "inactive: -12.7%"},
      {"smiles": "CCOC(=O)c1c(NC(=O)CCN2C(=O)c3cccc([N+](=O)[O-])c3C2=O)sc(C(=O)OC(C)C)c1C", "growth rescue (activation)": "inactive: 10.4%"},
      {"smiles": "COCCCNC(=O)Cn1c(=O)n(CCCCCC(=O)NCc2ccc3c(c2)OCO3)c(=O)c2sccc21", "growth rescue (activation)": "inactive: 0.486%"},
      {"smiles": "Cc1cc(C(F)F)n2ncc(C(=O)NCc3ccc(F)cc3)c2n1", "growth rescue (activation)": "inactive: 5.9%"},
      {"smiles": "C/C(=N\\NS(=O)(=O)c1ccccc1)c1ccc2c(c1)OCCO2", "growth rescue (activation)": "inactive: -7.26%"},
      {"smiles": "Cn1c(CNC(=O)c2ccco2)nnc1SCC(=O)c1ccccc1", "growth rescue (activation)": "inactive: 4.31%"},
      {"smiles": "OC(COCc1ccc(Cl)cc1)CN1CCc2ccccc2C1", "note": "(stereo not given)", "growth rescue (activation)": "inactive: -5.99%"},
      {"smiles": "COCCSc1ccccc1C(=O)Nc1cc(C)cc(C)c1", "growth rescue (activation)": "inactive: 25.6%"},
      {"smiles": "CC(C)(C)c1cc(=O)n2[nH]c(N)nc2n1", "growth rescue (activation)": "inactive: 10.6%"},
      {"smiles": "COc1ccccc1NC(=O)CC(=O)c1ccccc1", "growth rescue (activation)": "inactive: 14.3%"},
      {"smiles": "Cc1ccccc1S(=O)(=O)NC(=O)C1(C)CCN1C(=O)C(C)(C)c1ccccc1", "note": "(stereo not given)", "growth rescue (activation)": "inactive: 27.9%"},
      {"smiles": "O=C(CSc1nnc2c(n1)[nH]c1ccccc12)NC1CCCCC1", "growth rescue (activation)": "inactive: -20.7%"},
      {"smiles": "CCn1cc(CNC(=O)c2cccc([N+](=O)[O-])c2)c(C)n1", "growth rescue (activation)": "inactive: -22.4%"},
      {"smiles": "COc1ccccc1NC(=O)NC1(C(=O)N2CCOCC2)CCCCC1", "growth rescue (activation)": "inactive: 3.48%"},
      {"smiles": "C/C(=N\\N1CCN(Cc2ccc(Cl)cc2)CC1)c1ccc([N+](=O)[O-])cc1", "growth rescue (activation)": "inactive: 15.8%"},
      {"smiles": "COc1ccc(CCNC(=O)C2=C(C)C(=O)OC23CCCCC3)c(OC)c1OC", "growth rescue (activation)": "inactive: 5.83%"},
      {"smiles": "O=C(O)CCN(Cc1ccccc1)S(=O)(=O)c1ccc(Cl)cc1F", "growth rescue (activation)": "inactive: -1.72%"},
      {"smiles": "O=C(Nc1ccccc1N1CCOCC1)c1ccc(OCc2cscn2)cc1", "growth rescue (activation)": "inactive: 32.7%"},
      {"smiles": "O=C(CN1CCN(Cc2ccccc2)CC1)NCc1ccccc1Cl", "growth rescue (activation)": "inactive: -7.57%"},
      {"smiles": "Cc1c(NC(=O)COC(=O)c2cccn2C)c(=O)n(-c2ccccc2)n1C", "growth rescue (activation)": "inactive: -16%"},
      {"smiles": "CCSc1nc2ccccc2c(=O)n1C1CCOC(C)(C)C1", "note": "(stereo not given)", "growth rescue (activation)": "inactive: 15.3%"},
      {"smiles": "NC(=O)N/N=C/c1c(F)cccc1F", "growth rescue (activation)": "inactive: -15.7%"},
      {"smiles": "Cc1ccc([N+](=O)[O-])cc1S(=O)(=O)NCCc1c(C)[nH]c2c(C)cccc12", "growth rescue (activation)": "inactive: 17.7%"},
      {"smiles": "C=CCN(C(=O)c1csnn1)C(C(=O)NC(C)(C)C)c1ccncc1", "note": "(stereo not given)", "growth rescue (activation)": "inactive: 12.7%"},
      {"smiles": "Cn1ccc(NC(=O)Nc2cccc(C(F)(F)F)c2)n1", "growth rescue (activation)": "inactive: 9.59%"},
      {"smiles": "CC(=O)C1=C(O)C(=O)N(c2cccc(Br)c2)C1c1ccccc1Cl", "note": "(stereo not given)", "growth rescue (activation)": "inactive: -8.71%"},
      {"smiles": "CCC(Oc1ccccc1C)C(=O)Nc1ccc(S(=O)(=O)Nc2cc(C)on2)cc1", "note": "(stereo not given)", "growth rescue (activation)": "inactive: 12.6%"},
      {"smiles": "O=C(Cn1cncc1-c1ccc([N+](=O)[O-])cc1)Nc1cccc2ccccc12", "growth rescue (activation)": "inactive: -11.5%"},
      {"smiles": "O=Cc1cnc2ccccc2c1-c1ccccc1", "growth rescue (activation)": "inactive: 3.35%"},
      {"smiles": "CC(C(=O)O)n1nnc2ccccc21", "note": "(stereo not given)", "growth rescue (activation)": "inactive: 6.61%"},
      {"smiles": "COc1ccc([N+](=O)[O-])cc1N(CC(O)CN(C)C)S(=O)(=O)c1ccc(C)cc1", "note": "(stereo not given)", "growth rescue (activation)": "inactive: 1.54%"},
      {"smiles": "O=C(CCCC(=O)NCCc1ccccc1)NCCc1ccccc1", "growth rescue (activation)": "inactive: -1.64%"},
      {"smiles": "Cc1ccc(CN(CC(=O)NCCc2ccccc2)C(=O)c2csnn2)cc1", "growth rescue (activation)": "inactive: 10.7%"},
      {"smiles": "COc1ccccc1NC(=O)CCn1cnc2ccccc2c1=O", "growth rescue (activation)": "inactive: 14.1%"},
      {"smiles": "Cc1cccc(C)c1NC(=O)C(C)Sc1n[nH]c(-c2ccncc2)n1", "note": "(stereo not given)", "growth rescue (activation)": "inactive: 1.04%"},
      {"smiles": "CC(Oc1ccc(Br)cc1)C(=O)N1CCC(C(N)=O)CC1", "note": "(stereo not given)", "growth rescue (activation)": "inactive: 4.04%"},
      {"smiles": "CCOC(=O)N1CCN(C(=S)Nc2cccc(C)c2C)CC1", "growth rescue (activation)": "inactive: 16.7%"},
      {"smiles": "CCOCc1c(C(=O)NC2CCCCCC2)oc2ccccc12", "growth rescue (activation)": "inactive: 22.4%"},
      {"smiles": "COC(=O)c1c(SCc2cccc3ccccc23)nc(=O)[nH]c1C", "growth rescue (activation)": "inactive: 21.5%"},
      {"smiles": "Cc1c(Cc2ccccc2)c(=O)oc2cc(OCC(N)=O)ccc12", "growth rescue (activation)": "inactive: -12%"},
      {"smiles": "CCCSc1nnc(N)s1", "growth rescue (activation)": "inactive: -3.47%"},
      {"smiles": "COc1ccc(CNc2ccc([N+](=O)[O-])cn2)cc1", "growth rescue (activation)": "inactive: 8.29%"},
      {"smiles": "Cc1oc2ccc(OCc3ccc(Cl)cc3)cc2c1C(=O)O", "growth rescue (activation)": "inactive: -5.05%"},
      {"smiles": "COc1ccccc1CNC(=O)CN1NS(=O)(=O)c2ccccc2C1=O", "growth rescue (activation)": "inactive: -3.7%"},
      {"smiles": "CN(Cc1ccc(Br)cc1)CC(O)COc1cccc(Br)c1", "note": "(stereo not given)", "growth rescue (activation)": "inactive: 4.51%"},
      {"smiles": "COc1ccc(S(=O)(=O)NCC(=O)N(Cc2ccco2)C(C(=O)NC(C)(C)C)C(C)C)cc1", "note": "(stereo not given)", "growth rescue (activation)": "inactive: 8.33%"}
    ]}
  ]
}
